Laboratory results: article PMC4336329 (PLoS ONE, 2015)
Hit rate of the full screen: of about 310,000 compounds, about 2,200 (0.71%) showed an effect of 50% or more. The effect is printed as a negative number. The list shows a part of the results.

target: human ether-à-go-go-related gene (hERG) potassium channel (human, UniProt Q12809); assay: primary screen, population patch clamp on CHO cells stably expressing hERG
Sequence (Q12809 whole entry, looked up): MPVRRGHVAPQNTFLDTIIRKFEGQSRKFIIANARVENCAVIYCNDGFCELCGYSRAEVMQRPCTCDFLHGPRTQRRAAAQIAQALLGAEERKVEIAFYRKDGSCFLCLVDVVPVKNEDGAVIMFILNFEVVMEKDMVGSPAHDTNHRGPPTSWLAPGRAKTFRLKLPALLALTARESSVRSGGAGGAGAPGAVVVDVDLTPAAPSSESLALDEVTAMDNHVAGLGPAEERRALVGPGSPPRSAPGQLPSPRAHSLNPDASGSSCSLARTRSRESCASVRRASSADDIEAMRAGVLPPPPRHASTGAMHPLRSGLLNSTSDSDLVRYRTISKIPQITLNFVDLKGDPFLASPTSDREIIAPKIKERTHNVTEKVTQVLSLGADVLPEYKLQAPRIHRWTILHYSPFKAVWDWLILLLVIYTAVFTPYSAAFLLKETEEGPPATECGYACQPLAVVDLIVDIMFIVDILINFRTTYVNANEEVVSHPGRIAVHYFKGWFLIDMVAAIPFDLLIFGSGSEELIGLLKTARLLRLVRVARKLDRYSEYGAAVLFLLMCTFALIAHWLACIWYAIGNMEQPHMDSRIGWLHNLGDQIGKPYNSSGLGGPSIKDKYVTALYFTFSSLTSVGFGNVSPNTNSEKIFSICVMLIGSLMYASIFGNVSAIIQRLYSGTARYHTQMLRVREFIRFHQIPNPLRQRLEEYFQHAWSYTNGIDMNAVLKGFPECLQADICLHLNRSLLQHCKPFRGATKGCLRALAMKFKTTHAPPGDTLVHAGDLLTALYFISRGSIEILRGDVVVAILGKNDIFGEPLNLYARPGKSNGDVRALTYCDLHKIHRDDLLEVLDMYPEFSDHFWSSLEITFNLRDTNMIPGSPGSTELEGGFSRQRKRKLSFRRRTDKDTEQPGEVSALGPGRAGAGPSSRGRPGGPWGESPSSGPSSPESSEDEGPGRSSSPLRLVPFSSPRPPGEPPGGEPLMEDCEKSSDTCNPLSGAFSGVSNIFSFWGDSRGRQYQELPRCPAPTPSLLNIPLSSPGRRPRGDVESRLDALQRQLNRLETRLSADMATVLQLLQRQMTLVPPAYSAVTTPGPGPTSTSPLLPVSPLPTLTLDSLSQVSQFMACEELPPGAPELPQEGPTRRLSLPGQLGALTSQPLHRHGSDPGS

SMILES | hERG current change (%, negative = inhibition) at 1uM [%]
COc1ccc(/C=C/C(=O)Nc2cccc(S(=O)(=O)NC3=NCCCCC3)c2)c(OC)c1 | 4.09
O=C(O)c1nn(CC(=O)N2CCC(Cc3ccccc3)CC2)c(=O)c2ccccc12 | 10.9
COc1cc(/C=C2/N=C(C3CCCCC3)OC2=O)cc(OC)c1OC | -7.35
C=CCN1CN(S(=O)(=O)c2cccc(Cl)c2)c2nc3ccccc3nc21 | 15.1
O=C(CSc1nnc2c(n1)[nH]c1ccccc12)Nc1nncs1 | 16.2
COc1ccccc1-c1noc(CSc2nc(N)cc(=O)[nH]2)n1 | 17.5
COc1ccc(N(CC(=O)Nc2ccccc2OC)S(=O)(=O)c2ccc(OC)c(OC)c2)cc1 | 9.33
Cc1ccc(O)c(C2=Nc3ccccc3N=C(c3ccc([N+](=O)[O-])cc3)C2)c1 | 13.9
CN(CCc1ccccn1)C(=O)CN(C)S(=O)(=O)c1ccc2c(c1)c(=O)n(C)c(=O)n2C | 15.9
CCOc1cc(N2CCOCC2)c(OCC)cc1NC(=O)c1ccccc1C | 9.38
Cc1ccc(S(=O)(=O)N2CCc3c2cc([N+](=O)[O-])cc3[N+](=O)[O-])cc1 | 12
Cc1cc(C)c2cc(C#N)c(SCC(=O)NCC3CCCO3)nc2c1 (centres unmarked) | -2.04
COC(=O)C1=C(C)OC(N)=C(C#N)C1c1ccco1 (centres unmarked) | 18.7
O=C(COc1ncnc2sccc12)N1CCN(c2ccccc2)CC1.O=C(O)C(=O)O | -5.02
Cc1ccc2c(c1)SC1=NC(c3ccccc3)(C(F)(F)F)NC(=O)N12 (centres unmarked) | 10.5
Cc1ccc(O)c(C(CC(=O)N2CCCC2)c2ccccc2)c1 (centres unmarked) | -5.51
COc1ccc(Cn2nnnc2C(c2ccc(N(C)C)cc2)N2CCC(C)CC2)cc1 (centres unmarked) | 10
COc1ccc(C(=O)OCCN2C(=O)c3ccccc3C2=O)cc1 | 6.89
COc1ccc2c(c1)cc1n2CCN=C1NCCO.Cl | 7.67

SMILES | hERG current change (%, negative = inhibition) at 1uM [%]
COc1cc(CC(=O)NCc2ccco2)cc(OC)c1OC | 15.6
COc1ccc(-c2c(C)[nH]n3c(=O)c(Cc4ccccc4)c(C)nc23)cc1 | 2.54
O=C(NCCN1CCCOC1=O)C(=O)NCCN1CCCOC1=O | 7.52
COc1ccc(-n2c(O)c(/C=C3\C=Nc4ccc(Br)cc43)c(=O)[nH]c2=O)cc1 | 12
O=C(NCc1nnc(SCC(=O)N2CCCc3ccccc32)o1)c1c(F)cccc1Cl | 7.2
O=C(c1ccc(N2CCCC2)c([N+](=O)[O-])c1)N1CCN(S(=O)(=O)c2ccc(Cl)cc2)CC1 | 1.42
Cn1cccc1-c1cc(C(=O)N/N=C/c2ccc(Cl)cc2)[nH]n1 | 5.49
CC(=O)N1CCN(C(=O)COC(=O)CNC(=O)c2ccc(C)cc2)CC1 | 10.1
O=C(CSc1ccccc1)N[C@@H](Cc1ccccc1)C(=O)O | 11.8
CC1CCCCN1C/C=C/c1ccccc1[N+](=O)[O-] (centres unmarked) | -12.4
Cc1ccc(N(Cc2cc3cc(C)ccc3[nH]c2=O)S(=O)(=O)c2ccccc2)cc1 | 7.71
COc1ccc(C=O)cc1C1=CC(=O)C[C@H](c2ccc(Cl)cc2)C1 | 2.2
CN(C)S(=O)(=O)c1cccc(C(=O)Nc2ccccc2)c1 | 17.7
COC(=O)/C(=C\Nc1ccc(Cl)cc1Cl)NC(=O)c1ccccc1 | 4.82
O=C(COc1ccc(S(=O)(=O)N2CCOCC2)cc1)N1CCCCCC1 | 25.1
Cc1ccc(C(=O)Nc2ccc(N3CCN(C)CC3)cc2)cc1C.Cl | -0.23
CSCCC(NC(=O)c1ccco1)C(=O)N1CCN(c2ccccc2O)CC1 (centres unmarked) | -5.59
O=S(=O)(Nc1nccs1)c1cc(Cl)ccc1Cl | 0.942
CCOC(=O)C1(Cc2ccccc2C(F)(F)F)CCN(C(C)CSC)CC1 (centres unmarked) | 6.54

SMILES | hERG current change (%, negative = inhibition) at 1uM [%]
Cc1ccc(O)c(NC(=O)C2CC(c3cccc(Br)c3)=NO2)c1 (centres unmarked) | 0.541
COc1ccc(C(C(=O)NCc2ccccc2)N(C(=O)c2snc(C(N)=O)c2N)c2ccccc2OC)cc1 (centres unmarked) | 16.3
CCOC(=O)N1CCN(Cc2nc(N)nc(Nc3ccc(OC)cc3)n2)CC1 | -9.74
CC(=O)Nc1ccc(NC(=O)Cn2nc(C(=O)Nc3ccc(C)cc3)ccc2=O)cc1 | 19.7
CCOC(=O)C1CCCN(CCC(=O)Nc2ccc(Br)c(C)c2)C1.Cl (centres unmarked) | 0.54
Cc1ccc(SCn2nnc3ccccc3c2=O)c(C)c1 | 6.58
Nc1nnc(SCC(=O)NCc2ccc3c(c2)OCO3)s1 | 13.6
Cc1ccc(S(=O)(=O)N2CCCN(S(=O)(=O)C3CCS(=O)(=O)C3)CC2)cc1 (centres unmarked) | -21.3
CCOC(=O)C(=O)N1CCC(Cc2ccccc2)CC1 | 0.375
CCOC(=O)c1cc(CC)sc1NC(=O)COC(=O)C1CCC1 | 4.87
CCOC(=O)c1c(C2CC2)csc1NC(=O)CSCc1c(C)noc1C | 11.4
CC(C)(CNS(=O)(=O)c1ccc(Cl)cc1)N1CCCCC1 | -1.77
CN(C)CCN(C)Cc1ccccc1Sc1cccc2ccccc12.Cl | -4.04
COc1ccccc1NC(=O)Cn1nnc2sc3c(c2c1=O)CC(C)(C)OC3 | 14.8
CCCCNC(=O)CSc1cc(=O)n(C)c2ccccc12 | 16.2
CCCCC(=O)Nc1ccc(Cl)cn1 | -4
COc1cccc2cc(CC(=O)c3ccc(C)c(C)c3)c(=O)oc12 | 14.2
Cl.Nc1nc(Nc2cccc(F)c2)nc2ccccc12 | 5.64
